Target: T1, IL-13Rα2 on A375 human melanoma cells (human, UniProt Q14627 27-380)
T1 construct: whole, on cells
T1 sequence (looked up): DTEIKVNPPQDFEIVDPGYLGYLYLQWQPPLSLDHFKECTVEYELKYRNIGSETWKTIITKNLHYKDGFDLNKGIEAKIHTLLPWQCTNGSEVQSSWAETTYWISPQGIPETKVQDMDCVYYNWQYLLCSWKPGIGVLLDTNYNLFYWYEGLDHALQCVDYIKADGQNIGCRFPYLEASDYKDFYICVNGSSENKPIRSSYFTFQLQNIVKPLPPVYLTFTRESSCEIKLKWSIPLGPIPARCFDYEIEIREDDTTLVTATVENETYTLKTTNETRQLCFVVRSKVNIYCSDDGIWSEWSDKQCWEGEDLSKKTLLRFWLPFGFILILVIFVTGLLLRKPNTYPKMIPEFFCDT
Assay: flow cytometry; IL-13 captured on A375 cells that express IL-13Rα2, detected with biotinylated h13.2v2
Description: The cell signaling form of the IL-13 receptor, which includes the IL-13Rα1 and IL-4Rα polypeptides, is found on the surface of cell types that respond to the cytokine. IL-13Rα2 is not typically expressed on the surface of IL-13-responsive cells, but has been reported on tumors of the brain, head, and neck (Kawakami et al. (2003) Clin. Cancer Res. 9:6381-8; Mintz et al. (2002) Neoplasia 4:388-99; Liu et al. (2000) Cancer Immunol. Immunother. 49:319-24). IL-13Rα2 expression may also be induced on IFNγ-treated primary human monocytes (Daines et al. (2002) J. Biol. Chem. 277:10387-93), or TNFα- or IL-13-treated primary human fibroblasts (Yoshikawa et al. (2003) Biochem. Biophys. Res. Commun. 312:1248-55). This receptor is not competent to mediate signaling responses to IL-13 (Kawakami et al. (2001) Blood 97:2673-9), but instead appears to act as a decoy receptor, competing for productive IL-13 interactions with IL-13Rα1 (Feng et al. (1998) Lab. Invest. 78:591-602). IL-13Rα2 has a high affinity for IL-13 (Andrews et al. (2002) J. Biol. Chem. 277:46073-8), and appears to interact primarily with the C-terminal region of the cytokine (Madhankumar et al. (2002) J. Biol. Chem. 277:43194-205), which is not predicted to include the h13.2v2 binding site. Therefore, it was examined whether h13.2v2 could interact with IL-13 captured by IL-13Rα2 on the cell surface. […]

B1: recombinant human IL-13 (ligand)
chain: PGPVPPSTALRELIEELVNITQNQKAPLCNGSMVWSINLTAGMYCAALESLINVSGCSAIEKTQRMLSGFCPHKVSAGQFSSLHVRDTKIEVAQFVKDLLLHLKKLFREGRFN
notes: also called biotinylated IL-13; rec human IL-13
binding result: binds
